This note sets out measurements from ChEMBL document CHEMBL4888484, “Replenishing the malaria drug discovery pipeline: Screening and hit evaluation of the MMV Hit Generation Library 1 (HGL1) against asexual blood stage Plasmodium falciparum ,using a nano luciferase reporter read-out” (2022).

About 540 (0.36%) of roughly 150,000 compounds showed an effect of 50% or more. The list shows a part of the results.

The test system of this assay is Plasmodium falciparum. The experiment in a line: Primary screen in NF54 nanoGlo assay, in single point, at 2uM, 72h; a lower Z score goes with more inhibition. The class given is functional, Erythrocyte. The following applies: timepoint 72 hour.
On to `Cc1ccc(-n2nc(C(=O)NCc3ccncc3)c(=O)n(Cc3ccccc3)c2=O)cc1`, for which the “% Inhibition” value is listed as -7% and the Z score was found to be 0.83.
In the case of `Cc1cc2nc(C)c(=O)n(Cc3ccc(C(=O)NCCN4CCCC[C@@H]4C)cc3)c2cc1C`, the “% Inhibition” value amounted to 45% and the Z score is on record as -2.1.
With `CC(C)CN1CC[C@H](N2CCN(c3cccc(C(F)(F)F)c3)CC2)[C@H](CCC(=O)O)C1`, the “% Inhibition” value worked out at 9% and the Z score was -1.26.
Regarding `CC(=O)N1CCN(C(=O)[C@H](O)c2ccccc2)CCC12CCOCC2`, the “% Inhibition” value stood at 0% and the Z score is -0.04.
`O=C(NCCc1nc2cccnc2n1-c1ccccc1)NC1CCCC1`: the “% Inhibition” value was -25% and the Z score is reported as 2.2.
The like results for `CC(C)c1ncc(C(=O)N2CCN(c3ccc(F)c(Cl)c3)CC2)cn1` were, in that order, -2% and 0.22.
Regarding `Cc1cccc(C(=O)NC(=O)Nc2nc(-c3ccccc3)cc(C(F)(F)F)n2)c1`, the “% Inhibition” value is -12% and the Z score was 1.65.
As for `C[C@@H](CC1CCOCC1)Nc1ccc(CC#N)cc1`, the “% Inhibition” value is given as -8% and the Z score came to 0.92.
In the case of `Cc1nnc([C@H]2CN(C(=O)c3cnn(C)c3)CC23CCN(Cc2ccccc2)CC3)o1`, the “% Inhibition” value is -10% and the Z score is given as 1.46.
In the same order, the values of `CCCN(CC)C[C@@H](C)NC(=O)c1cc(N2CC(C)OC(C)C2)ccn1` (stereo partly specified) are -2% and 0.24.
As to `Cc1nc(CN2CCCN(c3cc(C(F)F)ncn3)CC2)oc1C`, the “% Inhibition” value was -1% and the Z score is recorded as 0.11.
In the same order, the values of `COc1ccc(N2CCN(C(=O)[C@H]3CCCN(c4nnc(N5CCCC5=O)s4)C3)CC2)cc1` are -2% and 0.32.
The like results for `Cc1nc(C(=O)N(C)Cc2ccc3c(c2)OCO3)c(C)s1` were, in that order, -17% and 1.43.
In the case of `CCC(=O)NCC1=CCN(CC(=O)N2CCCCCC2)CC1`, the “% Inhibition” value is recorded as -8% and the Z score stood at 1.59.
For `Cc1ccc(-c2oc(NC(=O)c3ccccc3Br)c(C#N)c2-c2ccc(C)cc2)cc1`, the “% Inhibition” value was 10% and the Z score is -1.12.
On to `CCc1ccccc1S(=O)(=O)N1CCC(Oc2nc(C(C)C)nc3c2CCOCC3)CC1`, for which the “% Inhibition” value is -5% and the Z score stood at 0.85.
In the same order, the values of `Cc1cc(OCc2cncc(F)c2)nn1C` are -14% and 1.67.
In the same order, the values of `COc1ccc(CC(=O)NC[C@H]2CCC3(CCOCC3)CO2)c(C)c1` are -13% and 1.69.
As to `O=C(c1cccnn1)N1CC(Oc2ccccc2Cl)C1`, the “% Inhibition” value is given as -16% and the Z score is given as 3.12.
As to `Cc1nc(N2CCOCC2)sc1Cc1ccccc1F`, the “% Inhibition” value is -4% and the Z score is recorded as 0.84.
In the same order, the values of `COc1ccc(C(=O)N2CCN(c3cnccn3)CC2)cc1S(=O)(=O)N1CCCCCC1` are -5% and 0.8.
Regarding `COCCn1c(C(c2ccccc2)c2ccccc2)nc2ccccc21`, the “% Inhibition” value is 12% and the Z score is -1.28.
Consider `COCc1nc(C(=O)Nc2nc3ccccc3n2C2CCCC2)cs1`, for which the “% Inhibition” value amounted to 33% and the Z score was -3.72.
